Measurements from PubChem BioAssay AID493035 (The Scripps Research Institute Molecular Screening Center, 2011).
“And” between values parts separate entries of the source, which are not always exact repeats. Identical values can stand only once. Among all 2,000 compounds or so, about 45 (2%) were called active.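 Rule for the calls: active = inhibition above the mean of all tested compounds plus 3 SD (cut at about 49% in these data); inactive = the rest.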 The list shows a part of the results.

Each compound was assayed against Perilipin-5 (Homo sapiens) + 1-acylglycerol-3-phosphate O-acyltransferase ABHD5 (Homo sapiens) (UniProt Q00G26+Q8WTS1) (assay: blockers of ABHD5 binding to perilipin-5 – cell lysate, split luciferase complementation, luminescence, NIH validation set, pilot screen (AID 493035;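 note: 0% = DMSO only wells while the 100% control is not stated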)). Conditions: split G. princeps luciferase complementation, lysates, 4 h; at 7.9 µM, hits give high values.
UniProt Q00G26, sequence (Q00G26 whole entry, looked up): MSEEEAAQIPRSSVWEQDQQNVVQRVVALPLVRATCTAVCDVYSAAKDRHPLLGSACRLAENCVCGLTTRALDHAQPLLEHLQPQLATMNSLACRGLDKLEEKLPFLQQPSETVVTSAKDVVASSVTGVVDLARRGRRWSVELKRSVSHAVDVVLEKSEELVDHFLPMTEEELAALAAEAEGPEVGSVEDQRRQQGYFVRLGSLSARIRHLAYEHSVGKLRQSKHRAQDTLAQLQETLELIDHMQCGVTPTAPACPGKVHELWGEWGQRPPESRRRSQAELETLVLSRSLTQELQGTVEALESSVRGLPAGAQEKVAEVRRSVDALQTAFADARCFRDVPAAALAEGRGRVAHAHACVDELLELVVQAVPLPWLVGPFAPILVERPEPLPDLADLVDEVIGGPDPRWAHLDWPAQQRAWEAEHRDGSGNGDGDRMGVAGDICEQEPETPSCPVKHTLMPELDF
UniProt Q00G26, sequence (Q8WTS1 whole entry, looked up): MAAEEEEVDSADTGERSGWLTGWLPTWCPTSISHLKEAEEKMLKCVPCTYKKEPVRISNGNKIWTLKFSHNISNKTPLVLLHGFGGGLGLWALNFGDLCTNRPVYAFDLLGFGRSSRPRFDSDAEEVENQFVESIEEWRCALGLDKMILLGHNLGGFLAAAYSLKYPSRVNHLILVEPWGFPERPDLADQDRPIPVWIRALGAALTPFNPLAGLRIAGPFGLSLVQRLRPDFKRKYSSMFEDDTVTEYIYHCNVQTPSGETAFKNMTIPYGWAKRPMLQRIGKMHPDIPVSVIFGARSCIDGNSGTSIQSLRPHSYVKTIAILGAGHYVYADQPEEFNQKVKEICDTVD

Row | SMILES | inhibition
1 | OC(COCc1ccccc1)CN1CCN(Cc2ccc3c(c2)OCO3)CC1 (stereo not drawn) | inactive: -8.73%
2 | O=C(NCC1CCCO1)c1ccc(OC2CCN(C(=O)C3CC3)CC2)cc1 (stereo not drawn) | inactive: 4.94%
3 | O=C(O)C1CCN(C(=O)COc2ccc3c4c(c(=O)oc3c2)CCC4)CC1 | inactive: -5.81%
4 | CC1(C)CC(C(CC(=O)N2CCCC2)Cc2ccccc2)CCO1 (stereo not drawn) | inactive: -10.3%
5 | CC1=NS(=O)(=O)c2cc(Cl)ccc2N1 | inactive: -7.28%
6 | CC(C)NCC(O)COc1ccc(CC(N)=O)cc1 (stereo not drawn) | inactive: 2%
7 | CCOC(=O)[C@H]1O[C@@H]1C(=O)N[C@@H](CC(C)C)C(=O)NCCC(C)C | inactive: -12%
8 | CC[C@H](CO)NCCN[C@H](CC)CO | inactive: 2.49%
9 | Cc1ccccc1NC(=O)C1(C)Cc2ccccc2C(=O)O1 (stereo not drawn) | inactive: -1.99%
10 | CCN(CC)CCOC(=O)C(c1ccccc1)c1ccccc1 | inactive: -1.8%
11 | OC(CCCN1CCCCC1)(c1ccccc1)c1ccccc1 | inactive: 7.85%
12 | COc1ccccc1NC(=O)C12CCC(C)(C(=O)C1)C2(C)C (stereo not drawn) | inactive: 2.61%
13 | C[C@]12CC[C@@H]3c4ccc(OS(=O)(=O)O)cc4CC[C@H]3[C@@H]1CCC2=O | inactive: -0.42%
14 | COC1(C)CC2C(CC1OC(=O)c1cc([N+](=O)[O-])cc([N+](=O)[O-])c1)C2(C)C (stereo not drawn) | inactive: 22.8%
15 | COc1ccc(CCn2c(C)nc3c(c(=O)c4ccccc4n3C)c2=O)cc1 | inactive: 11%
16 | Cc1ccc(S(=O)(=O)NC(=O)NN2CCCCCC2)cc1 | inactive: -4.11%
17 | COc1ccc(C=O)c(OC)c1 | inactive: -0.72%
18 | Cc1ccsc1/C=C/C1=NCCCN1C | inactive: 0.45%
19 | Fc1cc(F)cc(NC(=S)NCCCN2CCOCC2)c1 | inactive: 1.08%
20 | CCCCC[C@H](O)/C=C/[C@@H]1[C@@H](C/C=C\CCCC(=O)OC)[C@@H](O)C[C@H]1O | inactive: -13.5%
21 | Cn1nc(-c2ccccn2)nc2c(=O)n(C)c(=O)nc1-2 | inactive: 10.9%
22 | CCN(CC)CCNc1ccc(CO)c2sc3ccccc3c(=O)c12 | inactive: 8.06%
23 | Cc1ccc(O)c(CCc2ccccc2)n1 | inactive: -5.08%
24 | CSc1ccc2c(c1)N(CCC1CCCCN1C)c1ccccc1S2 (stereo not drawn) | inactive: -4.78%
25 | Cc1cc(-c2nn(-c3ccccc3F)cc2CN2CCCC(O)C2)c(C)s1 (stereo not drawn) | inactive: -7.93%

Row | SMILES | inhibition
26 | OCCN(Cc1nc(-c2ccc3c(c2)OCO3)no1)Cc1cccs1 | inactive: 4.31%
27 | Cc1cc(-c2ccccc2)nnc1NCCN1CCOCC1 | inactive: -10.7%
28 | COc1cc2c(cc1OC)CN(C(=O)c1ccc(S(=O)(=O)N(C)c3ccccc3)cc1)CC2 | inactive: 6.35%
29 | CCOc1ccccc1C(=O)NCCC(=O)O | inactive: -0.11%
30 | OC[C@H]1O[C@@H](n2cnc3c(Nc4ccccc4)ncnc32)[C@H](O)[C@@H]1O | inactive: -6.85%
31 | C=CCNC(=S)N1CCc2c([nH]c3ccccc23)C1C (stereo not drawn) | inactive: -7.62%
32 | O=C(OCCN1CCOCC1)c1cccs1 | inactive: 5.45%
33 | O=c1nc2sc3ccccc3n2c(=O)n1-c1ccc(Cl)cc1 | inactive: 5.72%
34 | CCCC(CCC)C(=O)OC1C[C@H]2CC[C@@H](C1)[N+]2(C)C (stereo partly drawn) | inactive: -9.28%
35 | c1ccc(Cn2ncc3c(Nc4ccccc4)ncnc32)cc1 | inactive: -6.21%
36 | O=C(O)CCCCCN1C(=O)C(=O)/C(=C(/O)c2ccccc2)C1c1ccccc1 (stereo not drawn) | inactive: -14.1%
37 | Cn1c2c(c(=O)[nH]c1=O)C(c1ccc(O)cc1)C1=C(N2)c2ccccc2C1=O (stereo not drawn) | inactive: 5.88%
38 | O=c1c2ccccc2nc2n1-c1ccccc1CCC2 | inactive: -0.31%
39 | CN(C)CCOCCOc1ccc(Cl)cc1Br | inactive: -2.82%
40 | CCc1ccc(CN(C)Cc2nc(Cc3ccccc3)no2)nc1 | inactive: 9.41%
41 | CC(COc1ccccc1)NC(C)C(O)c1ccc(O)cc1 (stereo not drawn) | inactive: -1.77%
42 | CC(=O)Nc1nc(CCC(C)C)cc2c1c(=O)oc1ccccc12 | inactive: -9.8%
43 | CC(C)(C)c1ccc(C(O)CCCN2CCC(C(O)(c3ccccc3)c3ccccc3)CC2)cc1 (stereo not drawn) | inactive: -14.5%
44 | Cc1nonc1CN(C)C(=O)c1ccc(OC2CCN(Cc3ccccn3)CC2)cc1 | inactive: -4.67%
45 | COc1ccc(-c2onc(C)c2-c2ccc(C(=O)OC(C)C)o2)c(O)c1 | inactive: -9.38%
46 | O=C(Oc1cccccc1=O)c1ccccc1 | inactive: -14.5%
47 | CCN1/C(=C/C=C/C=C/c2sc3ccccc3[n+]2CC)Sc2ccccc21 | active: 70.5%
48 | O=C1C(=O)N2C(=C1C(=O)N1CCCCCC1)c1ccccc1CC21CCCC1 | inactive: 0.84%
49 | O=C(CN1C(=O)c2ccccc2C1=O)Nc1cccc([N+](=O)[O-])c1 | inactive: -10.8%
50 | O=c1[nH]cnc2c1ncn2[C@@H]1O[C@H](CO)[C@@H](O)[C@H]1O | inactive: 1.49%

Row | SMILES | inhibition
51 | CCc1nc2ccccc2n1Cc1ccc(OC)c(OC)c1 | inactive: 0.83%
52 | O=C(O)C[C@@H](O)C(=O)O | inactive: -4.2%
53 | CC(=O)Oc1ccc2occ(/C=N/c3cc(=O)[nH]c(=S)[nH]3)c(=O)c2c1 | inactive: 3.16%
54 | O=c1ccc2ccccc2o1 | inactive: -11%
55 | CC1(C)CC(CNCCC(c2ccc(F)cc2)c2ccco2)CCO1 (stereo not drawn) | inactive: -10.4%
56 | CN(C)CCCN1c2ccccc2Sc2ccc(Cl)cc21 | inactive: -3.85% and inactive: -9.65%
57 | COc1ccc(C(=O)Nc2cccc3cccnc23)cc1OC | inactive: 3.39%
58 | CCOc1cc2c(cc1OCC)C(c1ccccc1)N(c1ccc(C(=O)O)cc1)C(=O)C2 (stereo not drawn) | inactive: 5.15%
59 | O=C(CCN1CCC(c2ccccc2)C1)c1ccc2c(c1)OCCO2 (stereo not drawn) | inactive: 17.6%
60 | c1ccc(Cn2nnc3cnccc32)cc1 | inactive: 0.38%
61 | CCOc1ccc(C(=O)/C=C/c2cc(OC)c(OC)c(OC)c2)cc1 | inactive: 33.3%
62 | COc1ccc(NC(=O)CC2C(=O)N(C)C(=S)N2Cc2ccncc2)cc1 (stereo not drawn) | inactive: -3.37%
63 | Nc1ccn([C@@H]2O[C@H](CO)[C@@H](O)[C@@H]2O)c(=O)n1 | inactive: -0.98%
64 | NC(N)=N/N=C/c1cccc(Cl)c1Cl | inactive: -13.9%
65 | COc1cc2c(cc1OC)-c1cc(NC3CCCCCC3)nc(=O)n1CC2 | inactive: 8.14%
66 | COc1ccc(CCN=CC2=C(O)CC(C)(C)CC2=O)cc1 | inactive: -10.3%
67 | C=CCNC(=O)c1ccc(-c2cccc([N+](=O)[O-])c2)o1 | inactive: -13.6%
68 | CC(C)CCC1(CCNC(C)c2cccs2)CCOC(C)(C)C1 (stereo not drawn) | inactive: -7.41%
69 | COc1ccc(CC(=O)c2c(O)cc(O)cc2O)cc1OC | inactive: -3.19%
70 | C[C@@H]1C[C@H]2[C@@H]3C[C@H](F)C4=CC(=O)C=C[C@]4(C)[C@@]3(F)[C@@H](O)C[C@]2(C)[C@@]1(O)C(=O)COC(=O)C(C)(C)C | inactive: -1.96%
71 | O=C1NC(=O)C(c2ccccc2)(c2ccccc2)N1 | inactive: -12.7% and inactive: 2.95%
72 | Cc1ccccc1-c1nn(-c2ccc(F)cc2F)cc1CNCCN(C)C | inactive: -6.8%
73 | O=C1NCC2=C1C(c1ccccc1)Nc1ccccc1N2 (stereo not drawn) | inactive: 13.5%
74 | Cc1ccc2c(c1)C(O)(C1COC(C)(C)CC1=O)C(=O)N2C (stereo not drawn) | inactive: -8.67%
75 | c1ccc(CNc2ncnc3nc[nH]c23)cc1 | inactive: -5.25%

Row | SMILES | inhibition
76 | O=c1nc2cccc3c2=c(/c1=C(\O)c1ccccc1)c1ccccc1c3=O | inactive: 4.68%
77 | CC(C)Cc1nc(NCCN2CCOCC2)c(C#N)c2c1COC(C)(C)C2 | inactive: -6.7%
78 | Fc1ccc(-c2cc(-c3ccccc3)nc(-n3cccn3)n2)cc1 | inactive: 2.83%
79 | COc1ccc(Cc2noc(CN(C)CC3(N4CCOCC4)CCCCC3)n2)cc1OC | inactive: 1.62%
80 | Cc1cccc(-c2ncc(CN3CCN(CC(C)C)C(CCO)C3)cn2)c1 (stereo not drawn) | inactive: -0.55%
81 | COC1CCN(Cc2cn(Cc3ccccc3)nc2-c2cc3ccccc3o2)CC1 | inactive: -13.2%
82 | COc1ccc(C2C3=C(OC(C)=O)c4ccccc4C3=Nc3c2c(=O)n(C)c(=O)n3C)cc1 (stereo not drawn) | inactive: -6.71%
83 | COc1ccc2[nH]c(=O)c(CNC3CCCCC3)cc2c1 | inactive: 0.21%
84 | COc1cc2c(cc1OC)C(Cc1ccc(O)cc1)N(C)CC2 (stereo not drawn) | inactive: 3.62%
85 | COc1ccccc1C(=O)c1cc2ccc(O)cc2oc1=O | inactive: 1.5%
86 | O=C(c1ccc(O)cc1)c1ccc(O)cc1O | inactive: -3.19%
87 | Cc1ccc(S(=O)(=O)Oc2ccccc2/C=N/N=C(N)N)cc1 | inactive: -1.13%
88 | CCc1cc2c(=O)c(-c3ccc(F)cc3)c(C)oc2cc1OCC(=O)O | inactive: 8.3%
89 | O=C(O)CP(=O)(O)O | inactive: -2.45%
90 | CNc1nc(N(C)C)nc(N(C)C)n1 | inactive: -0.61%
91 | COc1ccc(C(=O)/C=C/c2cc(C(=O)O)cc3c2OCOC3)c(O)c1 | active: 70.3%
92 | CN1CCCC(OC(=O)c2ccc3c(c2)OCCO3)C1 (stereo not drawn) | inactive: 1.35%
93 | COC(=O)c1ccccc1NC(=O)c1ccc(COc2ccc3c(c2)CCC3)cc1 | inactive: -8.51%
94 | Cc1c2c(nc3c(C)cccc13)OC(C)C2 (stereo not drawn) | inactive: 0.14%
95 | CN(C)C(=O)Oc1ccc[n+](C)c1 | inactive: -1.84%
96 | CC(=O)CCc1c(C)c2cccc(C)c2[nH]c1=O | inactive: -5.36%
97 | COc1ccccc1OCC(O)COC(N)=O (stereo not drawn) | inactive: 1.61%
98 | CC(C)C[C@H]1C(=O)N2CCC[C@H]2[C@]2(O)O[C@](NC(=O)[C@@H]3C=C4c5cccc6[nH]c(Br)c(c56)CC4N(C)C3)(C(C)C)C(=O)N12 (stereo partly drawn) | inactive: 12.3%
